Assay results: the supplement of paper PMC8728848
The list shows a part of the results.

Assays:
Assay in all cases: glycan array binding signal (z-score within array); higher = stronger binding
Settings in all cases: glycan notation: IUPAC condensed, linker removed
[1] = target: GalNAc(a1-3)GalNAc(b1-3)Gal(a1-4)Gal(b1-4)GlcNAc
Procedure, shortened: (§1)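 The binding signal is a Z-score computed within each array. Data were drawn from 3228 arrays in the Consortium for Functional Glycomics database, restricted to those with a known protein sequence. Scores were averaged over arrays of the same protein sequence at different concentrations or buffers, and over linkers, and negative values can be taken as non-binding.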

GalNAc(b1-3)Gal = target: GalNAc(b1-3)Gal
Procedure, shortened: as §1

[2] = target: GalNAc(b1-3)Gal(a1-4)Gal(b1-4)GlcNAc
Procedure, shortened: as §1

[3] = target: GalNAc(b1-3)Gal(a1-4)Gal(b1-4)GlcNAc(b1-3)Gal(b1-4)Glc
Procedure, shortened: as §1

[4] = target: GalNAc(b1-3)Gal(a1-6)Gal(b1-4)Glc
Procedure, shortened: as §1

GalNAc(b1-3)GalNAc = target: GalNAc(b1-3)GalNAc
Procedure, shortened: as §1

GalNAc(b1-3)GlcNAc = target: GalNAc(b1-3)GlcNAc
Procedure, shortened: as §1

GalNAc(b1-4)Gal(b1-4)Glc = target: GalNAc(b1-4)Gal(b1-4)Glc
Procedure, shortened: as §1

GalNAc(b1-4)GlcNAc = target: GalNAc(b1-4)GlcNAc
Procedure, shortened: as §1

[5] = target: GalNAc(b1-4)GlcNAc(b1-2)Man
Procedure, shortened: as §1

[6] = target: GalNAc(b1-4)GlcNAc(b1-2)Man(a1-3)[GalNAc(b1-4)GlcNAc(b1-2)Man(a1-6)]Man(b1-4)GlcNAc(b1-4)GlcNAc
Procedure, shortened: as §1

[7] = target: GalNAc(b1-4)GlcNAc(b1-3)GalNAc(b1-4)GlcNAc
Procedure, shortened: as §1

GalNAc(b1-4)GlcNAc6S = target: GalNAc(b1-4)GlcNAc6S
Procedure, shortened: as §1

GalNAc(b1-6)GalNAc = target: GalNAc(b1-6)GalNAc
Procedure, shortened: as §1

GalNAc3S(b1-4)GlcNAc = target: GalNAc3S(b1-4)GlcNAc
Procedure, shortened: as §1

GalNAc3S(b1-4)GlcNAc3S = target: GalNAc3S(b1-4)GlcNAc3S
Procedure, shortened: as §1

[8] = target: GalNAc3S(b1-4)[Fuc(a1-3)]GlcNAc
Procedure, shortened: as §1

GalNAc4S6S(b1-4)GlcNAc = target: GalNAc4S6S(b1-4)GlcNAc
Procedure, shortened: as §1

GalNAc6S(b1-4)GlcNAc = target: GalNAc6S(b1-4)GlcNAc
Procedure, shortened: as §1

Glc(a1-4)Glc = target: Glc(a1-4)Glc
Procedure, shortened: as §1

[9] = target: Glc(a1-4)Glc(a1-4)Glc(a1-4)Glc
Procedure, shortened: as §1

Glc(a1-6)Glc(a1-6)Glc = target: Glc(a1-6)Glc(a1-6)Glc
Procedure, shortened: as §1

[10] = target: Glc(a1-6)Glc(a1-6)Glc(a1-6)Glc
Procedure, shortened: as §1

Glc(b1-4)Glc = target: Glc(b1-4)Glc
Procedure, shortened: as §1

Glc(b1-6)Glc = target: Glc(b1-6)Glc
Procedure, shortened: as §1

GlcA(b1-3)Gal = target: GlcA(b1-3)Gal
Procedure, shortened: as §1

GlcA(b1-3)GlcNAc = target: GlcA(b1-3)GlcNAc
Procedure, shortened: as §1

GlcA(b1-6)Gal = target: GlcA(b1-6)Gal
Procedure, shortened: as §1

[11] = target: GlcA3S(b1-3)Gal(b1-4)GlcNAc(b1-2)Man
Procedure, shortened: as §1

[12] = target: GlcA3S(b1-3)Gal(b1-4)GlcNAc(b1-3)Gal(b1-4)Glc
Procedure, shortened: as §1

[13] = target: GlcNAc(a1-3)Gal(b1-4)GlcNAc
Procedure, shortened: as §1

[14] = target: GlcNAc(a1-4)Gal(b1-3)GlcNAc
Procedure, shortened: as §1

[15] = target: GlcNAc(a1-4)Gal(b1-4)GalNAc
Procedure, shortened: as §1

[16] = target: GlcNAc(a1-4)Gal(b1-4)GlcNAc
Procedure, shortened: as §1

[17] = target: GlcNAc(a1-4)Gal(b1-4)GlcNAc(b1-3)Gal(b1-4)Glc
Procedure, shortened: as §1

[18] = target: GlcNAc(a1-4)Gal(b1-4)GlcNAc(b1-3)Gal(b1-4)GlcNAc
Procedure, shortened: as §1

[19] = target: GlcNAc(a1-4)Gal(b1-4)GlcNAc(b1-3)Gal(b1-4)GlcNAc(b1-3)Gal(b1-4)GlcNAc
Procedure, shortened: as §1

[20] = target: GlcNAc(a1-4)Gal(b1-4)GlcNAc(b1-3)Gal(b1-4)[Fuc(a1-3)]GlcNAc(b1-3)Gal(b1-4)[Fuc(a1-3)]GlcNAc
Procedure, shortened: as §1

B1: Epa1 (Candida glabrata) (protein)
chain: MGSSHHHHHHSSGLVPRGSHMTSSNDISLASKDPTTFPLGCSPDITTPKKGLSMELYSYDFRKKGSYPCWDAAYLDPNYPRTGYKSHRLLAKVDGVTGNINFYYHATKGCTPQLGHLPASYNYPKPLTMTNFTMLLYGYFRPKVTGFHTFTISADDLLFVNFGAGNAFDCCRRDSSADHFGNYQAYAIWGSKTAKDELTVHLDAGVYYPIRLFYNNREYDGALSFTFKTESNENTVSDFSEYFFSLDDTEEGCPGLISYD
- glycan array binding signal (z-score) [1]: -0.312
- glycan array binding signal (z-score) (GalNAc(b1-3)Gal): -0.28
- glycan array binding signal (z-score) [2]: -0.287
- glycan array binding signal (z-score) [3]: -0.312
- glycan array binding signal (z-score) [4]: -0.314
- glycan array binding signal (z-score) (GalNAc(b1-3)GalNAc): -0.302
- glycan array binding signal (z-score) (GalNAc(b1-3)GlcNAc): -0.344
- glycan array binding signal (z-score) (GalNAc(b1-4)Gal(b1-4)Glc): -0.254
- glycan array binding signal (z-score) (GalNAc(b1-4)GlcNAc): -0.255
- glycan array binding signal (z-score) [5]: -0.306
- glycan array binding signal (z-score) [6]: -0.242
- glycan array binding signal (z-score) [7]: -0.355
- glycan array binding signal (z-score) (GalNAc(b1-4)GlcNAc6S): -0.279
- glycan array binding signal (z-score) (GalNAc(b1-6)GalNAc): -0.318
- glycan array binding signal (z-score) (GalNAc3S(b1-4)GlcNAc): -0.321
- glycan array binding signal (z-score) (GalNAc3S(b1-4)GlcNAc3S): -0.268
- glycan array binding signal (z-score) [8]: -0.321
- glycan array binding signal (z-score) (GalNAc4S6S(b1-4)GlcNAc): -0.259
- glycan array binding signal (z-score) (GalNAc6S(b1-4)GlcNAc): -0.259
- glycan array binding signal (z-score) (Glc(a1-4)Glc): -0.345
- glycan array binding signal (z-score) [9]: -0.282
- glycan array binding signal (z-score) (Glc(a1-6)Glc(a1-6)Glc): -0.354
- glycan array binding signal (z-score) [10]: -0.297
- glycan array binding signal (z-score) (Glc(b1-4)Glc): -0.363
- glycan array binding signal (z-score) (Glc(b1-6)Glc): -0.274
- glycan array binding signal (z-score) (GlcA(b1-3)Gal): -0.286
- glycan array binding signal (z-score) (GlcA(b1-3)GlcNAc): -0.28
- glycan array binding signal (z-score) (GlcA(b1-6)Gal): 0.89
- glycan array binding signal (z-score) [11]: -0.3
- glycan array binding signal (z-score) [12]: -0.327
- glycan array binding signal (z-score) [13]: -0.294
- glycan array binding signal (z-score) [14]: -0.365
- glycan array binding signal (z-score) [15]: -0.365
- glycan array binding signal (z-score) [16]: -0.251
- glycan array binding signal (z-score) [17]: -0.322
- glycan array binding signal (z-score) [18]: -0.322
- glycan array binding signal (z-score) [19]: -0.279
- glycan array binding signal (z-score) [20]: -0.191
